Consider 3 molecules from patent US20250257143A1 (FORTE SUBSIDIARY, published 2025).

In assay [1] the target is T1, huCD122-HIS (ARCO Bio | Cat No. CD2-H5221) (human, UniProt P14784 27-239).
T1 construct: Bought analyte of the BLI assay; also called human CD122; not shown: His tag
T1 sequence (looked up): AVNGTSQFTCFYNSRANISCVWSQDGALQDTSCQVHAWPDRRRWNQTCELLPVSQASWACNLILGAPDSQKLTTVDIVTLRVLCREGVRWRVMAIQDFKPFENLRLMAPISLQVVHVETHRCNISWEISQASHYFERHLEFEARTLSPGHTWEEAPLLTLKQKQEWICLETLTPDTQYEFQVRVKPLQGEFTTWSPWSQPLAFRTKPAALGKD
Nature of the assay: BLI Octet, antibody captured on AHC sensor, huCD122-His analyte, 1:1 fit. The procedure:
(§1) Based on Bio-Layer Interferometry (BLI), the Octet® BLI system is a fluidics-free instrument platform that enables real-time, label-free analysis for the determination of kinetics, affinity and antibody/protein quantitation. Binding experiments were performed on Octet HTX at 25° C. The analyte used was huCD122-HIS (ARCO Bio | Cat No. CD2-H5221) at a molecular weight of 25.4 kDa. The antibodies were loaded onto Anti-human Fc capture (AHC) sensors. The loaded sensors were dipped into serial dilutions of huCD122-His (Starting at 20 nM, 1:3 dilution, 4 points). Reference sample well (buffer) was used for data analysis. Kinetic constants were calculated using a monovalent (1:1) binding model. The assay buffer used was PBS with 0.1% BSA, […], pH 7.2. The regeneration buffer used was 10 mM Glycine buffer (pH 1.7). The four concentrations of huCD122-His used to determine anti-CD122 antibody binding and dissociation properties were 0.0 nM, 2.2 nM, 6.7 nM, and 20 nM. Sensorgram plots to display antibody binding characteristics were generated. The mouse parental chimera configurations in both IgG1 and IgG4 backbones (M5 IgG1 parental and M5 IgG4 parental) were tested as well as each combination of the humanized 3 HC and 3 LC variants in either an IgG1 or an IgG4 backbone.

Assay [2] addresses T1, huCD122-HIS (ARCO Bio | Cat No. …). Nature of the assay: BLI Octet, antibody captured on AHC sensor, huCD122-His analyte, 1:1 fit; second batch. The procedure:
as §1
For orientation: Biolayer interferometry detects binding as a change in optical thickness at a sensor tip.

For assay [3] the target is unchanged. Briefly: BLI Octet, antibody captured on AHC sensor (loading 25 ug/mL), huCD122-His analyte, 1:1 fit; second batch. On the procedure:
as §1

B1: G19 (antibody, human IgG4 S228P, kappa)
heavy: QVQLVQSGAEVKKPGASVKVSCKASGYTFTSHWITWVRQAPGQRLEWMGDIYPGSGNTNYNEKFQGRVTITVDTSASTAYMELSSLRSEDTAVYYCARERGGFDYWGQGTLVTVSSASTKGPSVFPLAPCSRSTSESTAALGCLVKDYFPEPVTVSWNSGALTSGVHTFPAVLQSSGLYSLSSVVTVPSSSLGTKTYTCNVDHKPSNTKVDKRV[here human IgG4 Fc with S228P (EU numbers) without letters]
light: DIQMTQSPSSLSASVGDRVTITCQASQDISNFLNWYQQKPGKTLKLLIYYTSGLHTGVPSRFSGSGSGTDFTFTISSLQPEDIATYYCQQDNNHPYTFGQGTKLEIKRTVAAPSVFIFPPSDEQLKSGTASVVCLLNNFYPREAKVQWKVDNALQSGNSQESVTEQDSKDSTYSLSSTLTLSKADYEKHKVYACEVTHQGLSSPVTKSFNRGEC
notes: Humanized, human IgG4 (S228P), kappa
As a reminder, the Kd is the concentration at which binding is half-saturated. As usually defined, the koff is the rate constant with which the complex falls apart. By kon is commonly meant the second-order rate constant of association. B1: in assay [1], the equilibrium dissociation constant (Kd) was 0.698 nM, the Response was 0.337, the koff was determined as 0.000322 s⁻¹ and the association rate constant (kon) was 462000 M⁻¹ s⁻¹. Moreover, in assay [2], the dissociation constant Kd worked out at 0.915 nM, the Response stood at 0.335, the koff was determined as 0.000489 s⁻¹ and the on-rate (kon) amounted to 534000 M⁻¹ s⁻¹.

B2: G13 (antibody, human IgG4 S228P, kappa)
heavy: QVQLVQSGAEVKKPGASVKVSCKASGYTFTSHWISWVRQAPGQGLEWMGDIYPGSGNTNYNEKLQGRVTMTVDTSTSTAYMELRSLRSDDTAVYYCARERGGFDYWGQGTLVTVSSASTKGPSVFPLAPCSRSTSESTAALGCLVKDYFPEPVTVSWNSGALTSGVHTFPAVLQSSGLYSLSSVVTVPSSSLGTKTYTCNVDHKPSNTKVDKRV[here human IgG4 Fc with S228P (EU numbers) without letters]
light: DIQMTQSPSSLSASVGDRVTITCQASQDISNFLNWYQQKPGKTLKLLIYYTSGLHTGVPSRFSGSGSGTDFTFTISSLQPEDIATYYCQQDNNHPYTFGQGTKLEIKRTVAAPSVFIFPPSDEQLKSGTASVVCLLNNFYPREAKVQWKVDNALQSGNSQESVTEQDSKDSTYSLSSTLTLSKADYEKHKVYACEVTHQGLSSPVTKSFNRGEC
notes: as for B1
For B2, in assay [1], the equilibrium dissociation constant (Kd) is 0.973 nM, the Response was 0.387, the dissociation rate constant (koff) was found to be 0.000396 s⁻¹ and the on-rate constant (kon) came out at 407000 M⁻¹ s⁻¹. In assay [3], the Kd is 0.995 nM, the off-rate constant (koff) was determined as 0.000645 s⁻¹ and the on-rate constant (kon) is 648000 M⁻¹ s⁻¹.

B3: G10 (antibody, human IgG1, kappa)
heavy: QVQLVQSGAEVKKPGASVKVSCKASGYTFTSHWITWVRQAPGQRLEWMGDIYPGSGNTNYNEKFQGRVTITVDTSASTAYMELSSLRSEDTAVYYCARERGGFDYWGQGTLVTVSS[here human IgG1 constant region without letters]
light: DIQMTQSPSSLSASVGDRVTITCRASQDISNFLNWYQQKPGKAPKLLIYYTSGLHSGVPSRFSGSGSGTDFTLTISSLQPEDFATYYCQQDNNHPYTFGQGTKLEIKRTVAAPSVFIFPPSDEQLKSGTASVVCLLNNFYPREAKVQWKVDNALQSGNSQESVTEQDSKDSTYSLSSTLTLSKADYEKHKVYACEVTHQGLSSPVTKSFNRGEC
notes: Humanized, human IgG1 (G1M17), kappa
As to B3, in assay [1], the equilibrium dissociation constant (Kd) worked out at 0.919 nM, the Response came out at 0.278, the koff was determined as 0.000518 s⁻¹ and the kon worked out at 564000 M⁻¹ s⁻¹. For the same molecule, in assay [2], the Kd is 1.41 nM, the Response was 0.36, the koff turned out to be 0.000607 s⁻¹ and the on-rate constant (kon) was 431000 M⁻¹ s⁻¹.
